Experiments:
[1] = biological target: SARS-CoV-2 Spike on pseudotyped virus (PsV) (SARS-CoV-2); assay: cell-based or functional assay
[2] = biological target: SARS-CoV-2 Spike on pseudotyped virus (PsV) (SARS-CoV-2); assay: cell-based or functional assay; remark: listed apart in the source

| Binder | IC50 SARS-CoV2 PsV, MB [1] [µg/mL] | Median IC50, SARS-CoV-2 PsV neutralization [2] [µg/mL] |
| --- | --- | --- |
| MB 178 (other) chain 1: EIVMTQSPATLSVSPGERATLSCKASQSVSGTYLAWYQQKPGQAPRLLIYGASTRATGIPARFSGSGSGTEFTLTISSLQSEDFAVYYCLQTHSYPPTFGQGTKVEIKRTVAAPSVFIFPPSDEQLKSGTASVVCLLNNFYPREAKVQWKVDNALQSGNSQESVTEQDSKDSTYSLSSTLTLSKADYEKHKVYACEVTHQGLSSPVTKSFNRGECGGGGSGGGGSGGGGSGGGGSGGGGSGGGGSGGGGSGGGGSGGGGSGGGGSGGGGSGGGGSGGGGSGGGGSQVQLVQSGAEVKKPGASVKVSCKASGYTFTDYHMHWVRQAPGQGLEWMGWINPNSGGTNYAQKFQGRVTMTRDTSTSTVYMELSSLRSEDTAVYYCARDISSWYEITKFDPWGQGTLVTVSSASTKGPSVFPLAPSSKSTSGGTAALGCLVKDYFPEPVTVSWNSGALTSGVHTFPAVLQSSGLYSLSSVVTVPSSSLGTQTYICNVNHKPSNTKVDKKVEPKSCGGGGSGGGGSGGGGSGGGGSGGGG[not shown - about 200 residues] chain 2: [not shown - human IgG1 Fc]GGGGSGGGGSGGGGSGGGGSGGGGSGGGGSGGGGSGGGGSGGGGSGGGGSGGGGSGGGGSGGGGSGGGGS[not shown - human IgG1 Fc]GGGGSGGGGSGGGGSGGGGSGGGGSGGSSQIRQNYSTDVEAAVNSLVNLYLQASYTYLSLGFYFDRDDVALEGVSHFFRELAEEKREGYERLLKMQNQRGGRALFQDIKKPAEDEW chain 3: EIVMTQSPATLSVSPGERATLSCKASQSVSGTYLAWYQQKPGQAPRLLIYGASTRATGIPARFSGSGSGTEFTLTISSLQSEDFAVYYCLQTHSYPPTFGQGTKVEIKRTVAAPSVFIFPPSDEQLKSGTASVVCLLNNFYPREAKVQWKVDNALQSGNSQESVTEQDSKDSTYSLSSTLTLSKADYEKHKVYACEVTHQGLSSPVTKSFNRGECGGGGSGGGGSGGGGSGGGGSGGGGSGGGGSGGGGSGGGGSGGGGSGGGGSGGGGSGGGGSGGGGSGGGGSQVQLVQSGAEVKKPGASVKVSCKASGYTFTDYHMHWVRQAPGQGLEWMGWINPNSGGTNYAQKFQGRVTMTRDTSTSTVYMELSSLRSEDTAVYYCARDISSWYEITKFDPWGQGTLVTVSSASTKGPSVFPLAPSSKSTSGGTAALGCLVKDYFPEPVTVSWNSGALTSGVHTFPAVLQSSGLYSLSSVVTVPSSSLGTQTYICNVNHKPSNTKVDKKVEPKSCGGGGSGGGGSGGGGSGGGGSGGGGSGKTPDAMKAAMALEKKLNQALLDLHALGSARTDPHLCDFLETHFLDEEVKLIKKMGDHLTNLHRLGGPEAGLGEYLFERLTLRHD | 1.7 | 1.7 |
| MB 80 (other) chain 1: [not shown - about 200 residues]GGGGSGGGGSGGGGSGGGGSGGGGSGGGGSGGGGSGGGGSGGGGSGGGGSGGGGSGGGGSGGGGSGGGGSQVQLVQSGAEVKKPGSSVKVSCKASGGTFNRYAFSWVRQAPGQGLEWMGGIIPIFGTANYAQKFQGRVTITADESTSTAYMELSSLRSEDTAVYYCARSTRELPEVVDWYFDLWGRGTLVTVSSASTKGPSVFPLAPSSKSTSGGTAALGCLVKDYFPEPVTVSWNSGALTSGVHTFPAVLQSSGLYSLSSVVTVPSSSLGTQTYICNVNHKPSNTKVDKKVEPKSCGGGGSGGGGSGGGGSGGGGSGGGG[not shown - about 200 residues] chain 2: [not shown - human IgG1 Fc]GGGGSGGGGSGGGGSGGGGSGGGGSGGGGSGGGGSGGGGSGGGGSGGGGSGGGGSGGGGSGGGGSGGGGS[not shown - human IgG1 Fc]GGGGSGGGGSGGGGSGGGGSGGGGSGGSSQIRQNYSTDVEAAVNSLVNLYLQASYTYLSLGFYFDRDDVALEGVSHFFRELAEEKREGYERLLKMQNQRGGRALFQDIKKPAEDEW chain 3: [not shown - about 200 residues]GGGGSGGGGSGGGGSGGGGSGGGGSGGGGSGGGGSGGGGSGGGGSGGGGSGGGGSGGGGSGGGGSGGGGSQVQLVQSGAEVKKPGSSVKVSCKASGGTFNRYAFSWVRQAPGQGLEWMGGIIPIFGTANYAQKFQGRVTITADESTSTAYMELSSLRSEDTAVYYCARSTRELPEVVDWYFDLWGRGTLVTVSSASTKGPSVFPLAPSSKSTSGGTAALGCLVKDYFPEPVTVSWNSGALTSGVHTFPAVLQSSGLYSLSSVVTVPSSSLGTQTYICNVNHKPSNTKVDKKVEPKSCGGGGSGGGGSGGGGSGGGGSGGGGSGKTPDAMKAAMALEKKLNQALLDLHALGSARTDPHLCDFLETHFLDEEVKLIKKMGDHLTNLHRLGGPEAGLGEYLFERLTLRHD | 0.0013 | 0.0013 |
| MB 108 (other) chain 1: DIQMTQSPSSLSASVGDRVTITCRASQVITNNLAWYQQKPGKAPKLLIYDASTLETGVPSRFSGSGSGTDFTLTISSLQPEDFATYYCQQSYTFPYTFGQGTKVEIKRTVAAPSVFIFPPSDEQLKSGTASVVCLLNNFYPREAKVQWKVDNALQSGNSQESVTEQDSKDSTYSLSSTLTLSKADYEKHKVYACEVTHQGLSSPVTKSFNRGECGGGGSGGGGSGGGGSGGGGSGGGGSGGGGSGGGGSGGGGSGGGGSGGGGSGGGGSGGGGSGGGGSGGGGSQVQLVQSGAEVKKPGASVKVSCKASGYIFSRYAIHWVRQAPGQGLEWMGWMNPISGNTDYAPNFQGRVTMTRDTSTSTVYMELSSLRSEDTAVYYCAKDGSQLAYLVEYFQHWGQGTLVTVSSASTKGPSVFPLAPSSKSTSGGTAALGCLVKDYFPEPVTVSWNSGALTSGVHTFPAVLQSSGLYSLSSVVTVPSSSLGTQTYICNVNHKPSNTKVDKKVEPKSCGGGGSGGGGSGGGGSGGGGSGGGG[not shown - about 200 residues] chain 2: [not shown - human IgG1 Fc]GGGGSGGGGSGGGGSGGGGSGGGGSGGGGSGGGGSGGGGSGGGGSGGGGSGGGGSGGGGSGGGGSGGGGS[not shown - human IgG1 Fc]GGGGSGGGGSGGGGSGGGGSGGGGSGGSSQIRQNYSTDVEAAVNSLVNLYLQASYTYLSLGFYFDRDDVALEGVSHFFRELAEEKREGYERLLKMQNQRGGRALFQDIKKPAEDEW chain 3: DIQMTQSPSSLSASVGDRVTITCRASQVITNNLAWYQQKPGKAPKLLIYDASTLETGVPSRFSGSGSGTDFTLTISSLQPEDFATYYCQQSYTFPYTFGQGTKVEIKRTVAAPSVFIFPPSDEQLKSGTASVVCLLNNFYPREAKVQWKVDNALQSGNSQESVTEQDSKDSTYSLSSTLTLSKADYEKHKVYACEVTHQGLSSPVTKSFNRGECGGGGSGGGGSGGGGSGGGGSGGGGSGGGGSGGGGSGGGGSGGGGSGGGGSGGGGSGGGGSGGGGSGGGGSQVQLVQSGAEVKKPGASVKVSCKASGYIFSRYAIHWVRQAPGQGLEWMGWMNPISGNTDYAPNFQGRVTMTRDTSTSTVYMELSSLRSEDTAVYYCAKDGSQLAYLVEYFQHWGQGTLVTVSSASTKGPSVFPLAPSSKSTSGGTAALGCLVKDYFPEPVTVSWNSGALTSGVHTFPAVLQSSGLYSLSSVVTVPSSSLGTQTYICNVNHKPSNTKVDKKVEPKSCGGGGSGGGGSGGGGSGGGGSGGGGSGKTPDAMKAAMALEKKLNQALLDLHALGSARTDPHLCDFLETHFLDEEVKLIKKMGDHLTNLHRLGGPEAGLGEYLFERLTLRHD | 0.37 | 0.37 |

— patent US20250263469A1 (HOSPITAL FOR SICK CHILDREN, published 2025)
